# Data from PubChem BioAssay AID248 (DTP/NCI, 2004).
# Inconclusive results and toxic doses are left out. Certain results were filed several times, with different values. Only these are listed. An entry can have further records. The values listed for one entry are repeated measurements (runs, samples, wells, individuals or studies). Brackets tell where a record comes from. Letters hold for one entry only.
# System: L1210 leukemia ip in BDF1 mice, survival T/C
# Assay: NCI In Vivo Anticancer Drug Screen. Data for tumor model L1210 Leukemia (intraperitoneal) in B6D2F1 (BDF1) mice
# Settings: endpoint: mean survival time, higher = longer survival
smiles,measurement,setting,value
O=C1CN(C(=O)CN2C(=O)c3ccccc3C2=O)C2(CCCCC2)O1,T/C,"dose: 100.0 mg/kg/injection, schedule: Q04DX003 (ip), vehicle: saline sonified",94 % of control and 173 % of control
CC(=N\N=C(N)N)/C(N=Nc1ccc(S(N)(=O)=O)cc1)=N\N=C(N)N,T/C,"dose: 240.0 mg/kg/injection, schedule: Q01DX Z (oral), vehicle: carboxymethylcellulose (CMC)",102 % of control and 157 % of control
CC1CN1P(=O)(OCCC#N)N1CC1C (centres undefined),T/C,"dose: 200.0 mg/kg/injection, schedule: Q04DX003 (ip), vehicle: acetone",123 % of control and 156 % of control
CN(N=O)C(=O)NC(C=O)C(O)C(O)C(O)CO (centres undefined),T/C,"dose: 13.0 mg/kg/injection, schedule: Q#A X Z (ip), vehicle: saline",120 % of control and 164 % of control
same,T/C,"dose: 100.0 mg/kg/injection, schedule: Q01DX Z (ip), vehicle: saline","92 % of control, 106 % of control, 155 % of control"
Nc1nc(=S)c2ncn(C3CC(O)C(CO)O3)c2[nH]1 (centres undefined),T/C,"dose: 25.0 mg/kg/injection, schedule: Q01DX005 (ip), vehicle: saline",114 % of control [sample A] and 159 % of control [sample B]
CC[n+]1ccccc1-c1ccc(NC(=O)c2ccc(C(=O)Nc3ccc(-c4ccccn4)cc3)cc2)cc1,T/C,"dose: 10.0 mg/kg/injection, schedule: Q01DX001 (ip), vehicle: saline",124 % of control and 155 % of control
CC(CN1CC(=O)NC(=O)C1)N1CC(=O)NC(=O)C1.[Cl-].[Pt+4] (centres undefined),T/C,"dose: 12.5 mg/kg/injection, schedule: Q01DX009 (ip), vehicle: saline",115 % of control and 152 % of control
CCSc1nc(Cl)cc(Sc2nc(N)nc3nc[nH]c23)n1,T/C,"dose: 150.0 mg/kg/injection, schedule: Q01DX001 (ip), vehicle: saline",119 % of control and 163 % of control
O=C(OCC1OC(n2c(=O)[nH]cc(F)c2=O)C(OC(=O)c2ccccc2)C1OC(=O)c1ccccc1)c1ccccc1 (centres undefined),T/C,"dose: 40.0 mg/kg/injection, schedule: Q01DX005 (ip), vehicle: Klucel (hydroxypropylcellulose) (HPC)",121 % of control and 173 % of control
CS(=O)(=O)OCOS(C)(=O)=O,T/C,"dose: 50.0 mg/kg/injection, schedule: Q01DX009 (ip), vehicle: saline",100 % of control and 156 % of control
C[n+]1ccc(Nc2ccc(NC(=O)c3ccc(Nc4cc[n+](C)c5ccc([N+](=O)[O-])cc45)cc3[N+](=O)[O-])cc2)cc1,T/C,"dose: 100.0 mg/kg/injection, schedule: Q04DX003 (ip), vehicle: suspension in saline",123 % of control and 150 % of control
C[OH+]c1ccccc1C(=O)O.C[OH+]c1ccccc1C(=O)O.[Ni],T/C,"dose: 100.0 mg/kg/injection, schedule: Q04DX002 (ip), vehicle: saline with Tween-80","101 % of control, 103 % of control, 174 % of control"
O=NN(CCF)C(=O)NC1CCS(=O)(=O)CC1,T/C,"dose: 8.0 mg/kg/injection, schedule: Q## X032 (ip), vehicle: other",123 % of control and 371 % of control
